# From PubChem BioAssay AID602313 (National Center for Advancing Translational Sciences (NCATS), 2012)
# Hit rate of the full screen: of about 390,000 compounds, about 760 (0.19%) were called active. About 3% were inconclusive and are not listed. Calls come from the whole dose curve; as a rule, active = well fitted inhibition curve with a large enough effect; inconclusive = small, poorly fitted or top-dose-only effect; inactive = flat fitted curve, though single readings scatter. The list shows a part of the results, in another mix than the full data.
# Test: qHTS for Inhibitors of Vif-A3F Interactions: qHTS; note: nearly all actives have a fitted effect of over 65% in size; for activity, negative = active: % of control where 0% means no effect
# Details: HeLa A3F-eYFP + Vif (tagged APOBEC3F with the HIV-1 protein that degrades it), YFP fluorescence increase; series mostly up to 46.1 µM; activity, negative = active: at the top concentration
# Excerpt: The recent discovery and characterization of host restriction factors, which provide a potent defense to invading retroviruses, has provided new targets for antiviral drug development. APOBEC3G (A3G) and APOBEC3F (A3F) are potent cytidine deaminases that block HIV-1 replication; HIV-1 expresses the Vif protein, which counteracts A3G and A3F by binding to them and inducing their proteasomal degradation. The Vif-A3G and Vif-A3F interactions provide two potential targets for development of small molecules which can interfere with the ability of Vif to degrade A3G or A3F. […] To identify inhibitors that can interfere with Vif mediated degradation of A3G and A3F, we have developed Hela cell lines that stably express A3G or A3F tagged with eYFP at the C-terminal end (A3G-eYFP or A3F-eYFP, respectively) and Vif. In the absence of an inhibitor, Vif induces degradation of A3G-eYFP and A3F-eYFP, and the cells are not fluorescent. In the presence of an inhibitor, it is expected that Vif will be unable to degrade A3G-eYFP and/or A3F-eYFP, resulting in an increase in yellow fluorescence. In this assays Vif A3F was screened against the Molecular Library Small Molecule Repository (MLSMR). NIH Chemical Genomics Center [NCGC] NIH Molecular Libraries Probe Centers Network [MLPCN] MLPCN Grant: MH093245 Assay Submitter (PI): Vinay Pathak, National Cancer Institute
# 5 uL of 700 cells/well of A3F-YFP cells are dispensed into black, clear bottom plates. The plates are incubated overnight at 37 deg C. 23 nL of compounds are added by pintool. The plates are incubated overnight at 37 deg C and then read on the TTP Acumen (Ex 488/ Em 500-530).
# Potency is the fitted concentration of half-maximal effect.
SMILES,"activity, negative = active",Potency
COc1cc(OC)c(OC)cc1/C=C1\C(=O)NC(=O)N(Cc2ccccc2)C1=O,inactive: -69.5%,
O=C1NC(=O)N(CCc2ccc(F)cc2)C(=O)/C1=C/C=C/c1ccccc1,inactive: -0.343%,
CCOc1ccc(CNC(=O)c2cccc(Nc3nc4ccccc4n4nnnc34)c2)cc1OC,,active: 12.6 µM
CN1CCC2(CC1)C(C#N)=C(N)NC(S)=C2C#N,inactive: -1.97%,
C=C(C)[C@@H]1CC[C@]2(C(=O)O)CC[C@]3(C)C(CCC4[C@@]5(C)CC[C@H](O)C(C)(C)C5CC[C@]43C)C12 (some centres not stated),inactive: 2.6%,
Cc1ccc(/C=C2\C(=O)NC(=O)N(CCc3ccc(F)cc3)C2=O)s1,inactive: -14.2%,
ClCCN(CCCl)c1ccc(C=Cc2ccncn2)cc1,,active: 22.4 µM
Cn1cccc1/C=C1\C(=O)NC(=O)N(Cc2ccccc2)C1=O,inactive: -13.6%,
CC(C)C[C@H]1C(=O)N2CCCC2[C@]2(O)O[C@](NC(=O)[C@@H]3C=C4c5cccc6[nH]cc(c56)CC4N(C)C3)(C(C)C)C(=O)N12 (some centres not stated),inactive: -17.3%,
CC(=O)C1CCC2C3CCC4CC(O)CCC4(C)C3CCC12C (configuration not stated),inactive: -2.51%,
Cc1ccc(N2C(=O)NC(=O)/C(=C\C=C\c3ccco3)C2=O)cc1,inactive: -15.2%,
CCOC(=O)c1ccc(Nc2nc(C)cc(C)n2)cc1,inactive: 1.65%,
N#C/C(=C(/O)c1ccc(S(=O)(=O)N(CCCl)CCCl)cc1)c1nc2ccccc2[nH]1,inactive: 1.54%,
CCN(CC)c1ccc(/C=C2\C(=O)NC(=O)N(Cc3ccco3)C2=O)cc1,inactive: -23.2%,
Cc1cc(C)cc(N2C(=O)NC(=O)/C(=C\c3cccn3-c3ccc(Cl)cc3)C2=O)c1,inactive: -1.53%,
CN1CCN(c2ccc(/C=C3\C(=O)NC(=S)N(c4cccc(Br)c4)C3=O)o2)CC1,,active: 25.1 µM
C=C1C(=O)O[C@@H]2C[C@@H](C)[C@@H]3C=CC(=O)[C@@]3(C)[C@@H](O)[C@H]12,inactive: 3.14%,
COc1ccc(N2C(=O)NC(=O)/C(=C/c3ccc([N+](=O)[O-])s3)C2=O)cc1,inactive: -12.9%,
COc1cccc(CCNCc2ccc(SC)cc2)c1,inactive: 20.2%,
O=c1[nH]c(O)c(/C=C2\C=Nc3ccc(OCc4ccccc4)cc32)c(=O)[nH]1,,active: 12.6 µM
O=C1NC(=O)N(c2ccccc2)C(=O)/C1=C/c1ccc([N+](=O)[O-])s1,inactive: 1.11%,
O=C1NC(=O)N(Cc2ccccc2)C(=O)/C1=C\N1CCCc2ccccc21,inactive: -22.8%,
